# Test results reported in the supplement of paper PMC3334620.
# In all, about 33,000 sequences were measured (“E-score (-0.5 to 0.5)”: median about -0.041, highest 2% from about 0.37 on). This is one part of the list.
# Target: T1, Ecm22 (UniProt Q05958)
# T1 sequence: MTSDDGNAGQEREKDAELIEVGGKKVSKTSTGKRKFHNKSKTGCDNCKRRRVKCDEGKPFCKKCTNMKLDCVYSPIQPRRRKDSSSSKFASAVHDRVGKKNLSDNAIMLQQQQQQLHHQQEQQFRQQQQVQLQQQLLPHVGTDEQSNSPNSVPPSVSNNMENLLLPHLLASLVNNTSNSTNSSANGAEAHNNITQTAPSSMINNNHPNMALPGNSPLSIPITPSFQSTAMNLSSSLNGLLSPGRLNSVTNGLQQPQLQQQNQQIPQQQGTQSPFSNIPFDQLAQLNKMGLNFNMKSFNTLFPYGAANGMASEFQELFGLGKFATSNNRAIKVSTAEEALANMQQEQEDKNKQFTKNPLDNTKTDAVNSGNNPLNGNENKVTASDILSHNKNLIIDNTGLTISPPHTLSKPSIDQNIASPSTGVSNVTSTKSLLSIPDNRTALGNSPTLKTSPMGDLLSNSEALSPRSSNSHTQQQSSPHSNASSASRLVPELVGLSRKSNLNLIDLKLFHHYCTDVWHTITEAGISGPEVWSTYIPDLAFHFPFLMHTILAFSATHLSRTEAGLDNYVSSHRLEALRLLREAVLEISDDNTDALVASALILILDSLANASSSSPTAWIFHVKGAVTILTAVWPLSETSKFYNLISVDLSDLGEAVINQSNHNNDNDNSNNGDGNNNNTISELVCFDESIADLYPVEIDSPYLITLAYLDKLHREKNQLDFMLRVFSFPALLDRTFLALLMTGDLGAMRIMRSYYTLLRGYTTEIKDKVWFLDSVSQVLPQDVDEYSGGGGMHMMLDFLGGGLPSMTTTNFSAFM
# Test: PBM E-score (8-mer binding enrichment) (E-score (-0.5 to 0.5)); higher = stronger / more preferred TF binding; most listed sequences are background and not binding sites
# Settings: protein concentration: 200 nM; construct: GST-full length
# In short: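 Bound GST-tagged yeast transcription factors, applied at about 100-200 nM to double-stranded universal all-10-mer Agilent arrays, were detected with fluorescent anti-GST. Scans were normalised with masliner. A modified Wilcoxon-Mann-Whitney statistic, the E-score, was assigned to each ungapped eight-base word pooled with its reverse complement by the Universal PBM Analysis Suite.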
row,Sequence,PBM E-score
1,AACACCGT,0.16
2,AATTAGCT,0.0861
3,GCCCCCCC,-0.174
4,AGCGCGAA,0.09
5,CTGCGGAA,-0.0657
6,GATATTCA,-0.102
7,GTGTTATA,0.143
8,CCAAAAAG,-0.283
9,ACCACGGG,-0.0797
10,AATTTTAC,0.134
11,ACATTAAG,-0.113
12,CCCGCCGA,-0.091
13,ACCGGTTA,0.15
14,GTTGGGTA,-0.00422
15,CCCAAGGC,-0.0365
16,GGAGGCTA,-0.234
17,ATAATCGC,0.12
18,CAGATGCA,-0.287
19,AACCACGA,-0.02
20,CATAACCC,-0.0625
21,GAATTGTA,0.0977
22,CTTGCAAA,-0.00195
23,AGAAACAA,-0.0295
24,CCGTGGCG,-0.101
25,ATACAGAA,0.0274

row,Sequence,PBM E-score
1,CATGGCGG,-0.188
2,CCTTAAAG,-0.217
3,AGCTGGTG,-0.101
4,CATTTAGG,-0.192
5,GCTTCGGA,0.121
6,CAAGTTCA,-0.0478
7,GATTATGA,0.106
8,CTGCAGAA,0.116
9,CCGTTCGA,0.152
10,CGCGGCTC,0.106
11,GAGTACTC,-0.129
12,GCAGTGTA,-0.0155
13,AGGAGCCA,-0.181
14,AACACTCA,0.113
15,TGGTGGAA,0.0476
16,ACAGGCCG,-0.101
17,AGATACTC,-0.0181
18,ACTGACGA,0.143
19,AGTCTCCG,0.0836
20,AAGGACAT,-0.105
21,GCTGCCAC,-0.254
22,GAAAAATA,0.0115
23,ACCAGCTC,-0.021
24,CGTCAACG,0.0717
25,TAAGTTAA,-0.196

row,Sequence,PBM E-score
1,ACATCGCG,0.129
2,GATTGTGC,0.0123
3,CCTGCCGC,-0.0288
4,TCGGTAAA,0.307
5,ACCTTTTA,0.00442
6,ATCCTTTG,0.00792
7,CCGCCGCG,0.0848
8,GATCGGCC,-0.0198
9,CACTTTTC,-0.13
10,GTATGCAC,0.0586
11,AAAATCCT,0.0832
12,ATGCCCGG,-0.118
13,CCTGGATA,-0.0636
14,CGTGTACA,0.058
15,CACTTTAA,0.0363
16,CCTAGACG,-0.0473
17,CTAATTTA,0.0682
18,CACTGCAG,-0.289
19,ATACCACG,0.157
20,AGATTCGC,0.141
21,ATGGCGTG,-0.0369
22,GAAAGCGC,0.0447
23,GAACCTTC,-0.126
24,GTAAAAGA,0.122
25,ACCAAAGT,-0.114

row,Sequence,PBM E-score
1,AACCAGTG,-0.216
2,CGAAGCAG,0.147
3,ACAGCTGG,-0.0911
4,TTCCTCAA,-0.223
5,TGAGCTCA,-0.0237
6,CACATGTG,-0.09
7,CATCAACA,-0.00088
8,AATGTCCG,0.127
9,AGACTGGA,-0.184
10,AGTTACTG,-0.00284
11,CCCTCAGG,-0.145
12,ACTGAAAT,-0.173
13,ATGATGTC,-0.0748
14,AGAAATGG,-0.113
15,CCTGGCTA,0.0196
16,CACAAGGC,-0.268
17,CAGGAGTC,-0.2
18,AACGTGGC,0.029
19,CGATCCGC,0.202
20,ACTCGGGA,0.0962
21,AGTATTAC,0.114
22,CGGTAAAA,0.228
23,GACCTGCC,-0.133
24,CCTTCCTC,-0.0948
25,CACTAACG,0.0843

row,Sequence,PBM E-score
1,GAATATTC,0.0131
2,GCGTGACC,-0.0417
3,CACAGAGA,-0.126
4,AAGCCCAA,-0.148
5,CAATCTAG,-0.0844
6,CAACCGGA,0.103
7,TGCAAACA,-0.115
8,ACTAGGCG,0.022
9,CGAATCGA,0.25
10,ATCCCGCG,0.115
11,CGTTGCTC,0.347
12,GTTGTAGA,0.134
13,ACGATACC,0.334
14,AAGCAGAT,-0.224
15,CGTGTCTC,0.159
16,ATGTCACC,-0.0358
17,CGTACACA,0.402
18,TGCGATAA,0.097
19,ATGTAGAA,-0.0578
20,AAATCGCC,-0.0324
21,CACAGTTA,-0.204
22,CAATCAAG,-0.0352
23,CGAAAAGA,0.193
24,GGGAGCTA,-0.137
25,CGTACGCC,0.3

row,Sequence,PBM E-score
1,CTCGTGGA,-0.0176
2,GAGCGTGA,-0.0567
3,ATAAGGCA,-0.0922
4,ATGAGTTG,-0.0973
5,GAAAGCCA,-0.233
6,AAAAATTA,0.013
7,CTGTCACA,-0.21
8,ATGCGTGC,0.0223
9,GAATGTCC,-0.0991
10,AAGGATCA,-0.146
11,TAGCTGGA,-0.166
12,AACTTTAA,-0.0181
13,ATGAAGAC,-0.064
14,CGCCAGCG,-0.143
15,ACATGATC,-0.104
16,TTGTGAAA,-0.162
17,AAGGTTTA,-0.0875
18,ATCAACTA,0.096
19,GCAAAGGA,0.0841
20,ACATACCC,-0.105
21,GAATTGCC,-0.0443
22,ATATTCCC,-0.034
23,AAAGCAGA,0.058
24,GACCAACC,-0.0568
25,CAAGAGGA,-0.145

row,Sequence,PBM E-score
1,AAGGGTCA,-0.293
2,ATCTTCTA,0.0705
3,CACCCTGC,-0.23
4,ACGGAAGC,0.145
5,TACCTCAA,0.0468
6,GCATTCCC,-0.208
7,ATTATGCA,0.00826
8,CCGGGAAA,0.0379
9,AAAGCATG,-0.086
10,GGGAGGGA,-0.062
11,GATTTGGA,-0.107
12,CATAAATC,-0.125
13,GAGTAACA,0.0615
14,AATGGGGC,-0.217
15,AGTGGACC,-0.319
16,ATGTCCGA,0.19
17,CATTAAAC,0.125
18,CGATTTAA,-0.0579
19,CAGGGATG,-0.0987
20,CTGTAACC,0.0512
21,GCTCTCCC,0.0533
22,AAAATATT,0.0299
